From PubChem BioAssay (NCATS)
Inconclusive results, whose numbers are uncertain, are shown with a selection of clear calls. A call without a number means that no potency is given here. Potencies of inconclusive entries are doubtful fits and often do not repeat. Calls of active or inactive are those of the source. The call rests on the fitted dose curve; in most records, active means well fitted cell-killing curve with a large enough effect; inconclusive means small, poorly fitted or top-dose-only effect, or effect the other way; inactive means flat fitted curve, though single readings scatter.

Key:
Experiment in all cases: Primary qHTS to identify gynecologic anti-cancer compounds using libraries of approved drugs and bioactive compounds (AID 1345084); further: nearly all actives have a fitted effect of over 55% in size
Conditions in all cases: Gynecologic cancer cell panel viability, ATPlite luminescence, 48 h; series mostly up to 57.5 µM
SKOV3 = test system: SKOV3
Outline: (§1)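 ATP-based viability (ATPlite), 1,000 cells/well, 16 h pre-incubation, 48 h compound at 37 C, 5% CO2, 15 min RT before read.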

Tov-21-G = test system: Tov-21-G
Outline: as §1

Tov112D = test system: Tov112D
Outline: as §1
Potency means the concentration at half of the fitted maximal effect; tags describe the fitted curve by direction and shape.

CN[C@H]1[C@H](O)[C@H](O[C@@H]2[C@@H](O)[C@H](O[C@H]3O[C@H]([C@H](C)O)[C@@H](O)[C@H](O)[C@H]3N)[C@@H](N)C[C@H]2N)OC[C@@]1(C)O
Potency (SKOV3): inactive
Potency (Tov-21-G): inactive

CC(=O)O[C@H]1C[C@]2(O)[C@@H]3CC[C@@H]4C[C@@H](O)CC[C@]4(C)[C@H]3CC[C@]2(C)[C@H]1c1ccc(=O)oc1
Potency (SKOV3): active: 0.1 µM
Potency (Tov-21-G): active: 0.0891 µM
Potency (Tov112D): inconclusive: 0.1 µM

CN1C(=O)CCS(=O)(=O)C1c1ccc(Cl)cc1 (stereo unspecified)
Potency (SKOV3): inconclusive: 2.82 µM [rising, partial curve, poor fit]
Potency (Tov-21-G): inactive

c1ccc2c(c1)OCC(C1=NCCN1)O2 (stereo unspecified)
Potency (SKOV3): inconclusive: 28.2 µM [cytotoxic, single point]
Potency (Tov-21-G): active: 15.8 µM
Potency (Tov112D): inconclusive: 39.8 µM [cytotoxic, single point]

Cc1cc(O)ccc1Cl
Potency (SKOV3): inactive
Potency (Tov-21-G): inactive

CC1(C)C(=O)N(c2ccc(C#N)c(C(F)(F)F)c2)C(=S)N1c1ccc(C(N)=O)c(F)c1
Potency (SKOV3): inactive
Potency (Tov-21-G): inactive

O=c1c(C2CC(c3ccc(-c4ccc(Br)cc4)cc3)Cc3ccccc32)c(O)sc2ccccc12 (stereo unspecified)
Potency (SKOV3): inactive
Potency (Tov-21-G): inconclusive: 28.2 µM [rising, partial curve, poor fit]
